# Screen size: about 54,000 compounds; about 120 (0.22%) were called active. Inconclusive results, whose numbers are uncertain, are shown with a selection of clear calls. Calls follow the shape of the dose curve; as a rule, active = well fitted inhibition curve with a large enough effect; inconclusive = small, poorly fitted or top-dose-only effect, or effect the other way; inactive = flat fitted curve, though single readings scatter. Potencies of inconclusive entries are left out as doubtful fits.
# Biological target: Fumarate hydratase, mitochondrial (Homo sapiens) (UniProt P07954)
# Sequence of UniProt P07954 (P07954 whole entry, looked up): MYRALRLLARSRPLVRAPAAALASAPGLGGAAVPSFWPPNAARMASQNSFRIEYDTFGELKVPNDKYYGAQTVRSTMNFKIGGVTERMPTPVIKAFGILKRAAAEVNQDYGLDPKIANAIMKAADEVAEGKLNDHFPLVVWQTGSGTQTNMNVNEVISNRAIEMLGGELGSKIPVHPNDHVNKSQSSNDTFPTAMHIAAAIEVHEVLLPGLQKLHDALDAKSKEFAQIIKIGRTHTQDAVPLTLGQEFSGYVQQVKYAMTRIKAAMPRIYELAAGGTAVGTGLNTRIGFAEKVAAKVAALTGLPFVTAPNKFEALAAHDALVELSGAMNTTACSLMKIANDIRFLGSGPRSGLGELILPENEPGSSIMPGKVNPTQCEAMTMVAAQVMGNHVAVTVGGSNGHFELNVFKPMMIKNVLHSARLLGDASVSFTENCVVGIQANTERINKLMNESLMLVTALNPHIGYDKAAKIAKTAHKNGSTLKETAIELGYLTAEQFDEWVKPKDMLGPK
# Assay: Identification of activators of human fumarate hydratase by quantitative high-throughput screening; also: the screen sought activators but most active calls are inhibition curves; nearly all actives have a fitted effect of over 45% in size
# Conditions: FH coupled MDH/diaphorase resazurin fluorescence, 15 min; series mostly up to 79.9 µM
# Potency is read from the fitted curve at half-maximal effect; tags tell the direction and shape of the fitted curve.
row,Compound,Potency
1,CCOC(=O)c1cccc(NC(=O)c2cc3c(=O)n(C)c4ccccc4c3n2C)c1,"inconclusive [inhibitor, partial curve, poor fit]"
2,CCC(C)Cn1c(/C=C/c2ccccc2)nc2ccccc21 (centres undefined),inactive
3,COCCOc1ccc2c(c1)ncn2-c1ccc2cccc(N3CCC(N)CC3)c2n1,inactive
4,Cc1cc(Nc2cc(N3CCN(C)CC3)nc(/C=C/c3ccccc3)n2)n[nH]1,inactive
5,CCc1ccc(NC(=O)CSc2nc(-c3ccccc3Cl)nc3c2Cc2c(CO)cnc(C)c2O3)cc1,"inconclusive [inhibitor, partial curve]"
6,COc1ccc(OC)c2sc(N3CCN(C(=O)c4ccc5c(c4)CCCC5)CC3)nc12,"inconclusive [inhibitor, single point]"
7,COc1ccc(C2CC(=O)N(Cc3ccc(F)cc3)c3ccccc3S2)cc1OC (centres undefined),"inconclusive [inhibitor, single point]"
8,O=C(O)c1ccc(Nc2nc3ccccc3n3cnnc23)cc1,"inconclusive [inhibitor, partial curve]"
9,Cc1occc(=O)c1O[C@@H]1O[C@H](COC(=O)CC(C)(O)CC(=O)O)[C@@H](O)[C@H](O)[C@H]1O (some centres undefined),inactive
10,Cc1cc(C)n2c(Nc3ccc4c(c3)OCCO4)c(-c3ccc(Cl)cc3)nc2n1,"inconclusive [inhibitor, single point]"
11,Cc1ccc(NC(=O)CSc2ncc(S(=O)(=O)c3ccc(C(C)C)cc3)c(=O)[nH]2)cc1C,"inconclusive [inhibitor, full curve]"
12,CCn1c(=O)c2cc(C(=O)NCCCOC)sc2c2ccccc21,"inconclusive [inhibitor, single point]"
13,COC(=O)C1=C(C)NC(C)=C(C(=O)OCC(C)C)C1c1ccccc1[N+](=O)[O-] (centres undefined),"inconclusive [inhibitor, partial curve]"
14,COCCn1c2c([n+](Cc3cnccn3)c1C)C(=O)c1ccccc1C2=O,active: 21.7 µM
15,COc1ccc(OC)c(CNS(=O)(=O)c2ccc3[nH]c4c(c3c2)CCCCC4)c1,"inconclusive [inhibitor, single point]"
16,Cc1ccc(NC(=O)CSc2nccn2Cc2ccco2)cc1Cl,inactive
17,CCN(CC)C(=O)c1sc2c(c1C)c(=O)n(-c1ccc(Cl)c(Cl)c1)c(=O)n2Cc1cc(=O)n2ccccc2n1,"inconclusive [inhibitor, partial curve]"
18,Cc1oc2c(cc(NS(=O)(=O)c3ccc(C(C)C)cc3)c3ccccc32)c1C(=O)O,"inconclusive [inhibitor, partial curve]"
19,CSc1cccc(Nc2cc(C(=O)NCCc3ccc(Cl)cc3)c3ccccc3n2)c1,"inconclusive [inhibitor, partial curve]"
20,CCCCOc1ccc(C2=NC(c3cccs3)=Nc3ccc(CC)cc3N2)cc1,"inconclusive [inhibitor, partial curve, poor fit]"

row,Compound,Potency
1,COc1ccc2c(c1)CC(C(=O)NCCN1CCN(c3cccc(Cl)c3)CC1)CO2 (centres undefined),"inconclusive [inhibitor, single point]"
2,O=C(O)c1ccc(CCCc2ccc(OCCc3ccc(F)cc3)cc2)o1,inactive
3,OCC1O[C@H]([S-])C(O)[C@@H](O)[C@@H]1O.[Au+] (some centres undefined),"inconclusive [inhibitor, partial curve, poor fit]"
4,CC(=O)N[C@H](Cc1ccc(O)cc1)C(=O)N[C@H](CCCN=C(N)N)C(=O)N[C@H](Cc1ccccc1)C(N)=O,inactive
5,Cc1ccc(NC(=O)c2ccc(=O)n(CC(=O)Nc3c(C)cc(C)cc3C)n2)cc1,"inconclusive [inhibitor, partial curve, poor fit]"
6,Cc1ccc(S(=O)(=O)N(CC(O)Cn2c3ccccc3c3ccccc32)c2cccc(C(=O)N(C)C)c2)cc1 (centres undefined),"inconclusive [inhibitor, single point]"
7,Cc1oc2ccc(O)c(CN3CCCCCC3)c2c1C(=O)Nc1cccc(Cl)c1C,"inconclusive [inhibitor, partial curve, poor fit]"
8,C=C1C(=O)O[C@@H]2C[C@]3(C)[C@@H](CCC(C)O)[C@@H]3C[C@H]12 (some centres undefined),inactive
9,CCS(=O)(=O)N1CCc2cc(C(=O)Nc3cccc(C)c3C)ccc21,inactive
10,O=C(CSc1nc(-c2ccccc2)[nH]c1-c1ccccc1)Nc1ccc2c(c1)OCO2,"inconclusive [inhibitor, partial curve, poor fit]"
11,Cc1sc2c(c1C)c(=O)n(-c1ccccc1)c(=O)n2CC(=O)c1ccc(Cl)cc1,"inconclusive [inhibitor, partial curve, poor fit]"
12,Fc1ccc(Nc2nc3nonc3nc2Nc2cccc(C(F)(F)F)c2)cc1,"inconclusive [inhibitor, single point]"
13,CCN1CCSc2ccc(C(=O)NCc3cccc(F)c3)cc21,"inconclusive [inhibitor, partial curve, poor fit]"
14,Cc1ccc(C(=O)Nc2ccc3c(c2)N(C)C(=O)c2ccccc2S3)cc1,"inconclusive [inhibitor, partial curve, poor fit]"
15,CNCc1cc(-c2ccccc2F)n(S(=O)(=O)c2cccnc2)c1,"inconclusive [activator, partial curve]"
16,COc1ccc(C(=O)CC2(O)C(=O)N(CCc3ccccc3)c3ccc(Br)cc32)cc1OC (centres undefined),"inconclusive [inhibitor, single point]"
17,O=C(CSc1oc(-c2cccs2)nc1S(=O)(=O)c1ccccc1)Nc1ccc(F)cc1,"inconclusive [inhibitor, partial curve, poor fit]"
18,CCc1ccc(N2CC(c3nc4ccccc4n3Cc3ccccc3C)CC2=O)cc1 (centres undefined),"inconclusive [inhibitor, partial curve, poor fit]"
19,CCc1ccccc1NS(=O)(=O)c1ccc2[nH]cc(C(=O)NC3CCCC3)c(=O)c2c1,"inconclusive [inhibitor, partial curve]"

# — PubChem BioAssay AID1347055 (National Center for Advancing Translational Sciences (NCATS), 2019)
